Among all 410,000 compounds or so, about 6,400 (1.6%) were called active. The call rests on the fitted dose curve; in most records, active means well fitted inhibition curve with a large enough effect; inconclusive means small, poorly fitted or top-dose-only effect; inactive means no such curve, though single readings can be large or run the other way. The inconclusive results got no clear call from the source. Potencies of inconclusive entries are doubtful fits and often do not repeat.
Each compound was assayed against Glucagon-like peptide 1 receptor (Homo sapiens) (UniProt P43220) (assay: qHTS of GLP-1 Receptor Inverse Agonists (Inhibition Mode)). Conditions: HEK293 GLP-1R CRE-luciferase, luminescence, 24 h, GLP-1R form is constitutively active; series mostly up to 38.3 µM.
Sequence of UniProt P43220 (P43220 whole entry, looked up): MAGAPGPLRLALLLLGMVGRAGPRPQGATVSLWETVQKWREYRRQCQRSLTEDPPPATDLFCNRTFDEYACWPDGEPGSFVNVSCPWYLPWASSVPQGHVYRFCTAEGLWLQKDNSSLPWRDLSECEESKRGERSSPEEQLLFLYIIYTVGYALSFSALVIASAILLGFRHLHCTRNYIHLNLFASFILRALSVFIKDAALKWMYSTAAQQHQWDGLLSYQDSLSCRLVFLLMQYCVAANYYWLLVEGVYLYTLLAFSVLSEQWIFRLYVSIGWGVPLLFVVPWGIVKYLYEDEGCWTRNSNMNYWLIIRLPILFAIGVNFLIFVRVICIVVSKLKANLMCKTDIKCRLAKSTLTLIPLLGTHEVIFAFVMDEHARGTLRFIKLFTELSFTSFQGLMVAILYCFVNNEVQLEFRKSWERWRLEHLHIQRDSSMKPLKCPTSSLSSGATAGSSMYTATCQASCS
Outline: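 Readout was luciferase luminescence, measured 12 min after detection reagent at room temperature. Beforehand, GLP-1R reporter HEK293 cells had sat 12 h, then received compounds for 24 hr at 37 deg C.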
Further: nearly all actives have a fitted effect of over 55% in size.
Potency means the concentration at half of the fitted maximal effect; tags describe the fitted curve by direction and shape.

Potency, inconclusive:
COc1ccc(-c2csc(NC(=O)CSc3nc(SC)ns3)n2)cc1 28.2 µM [inhibitor, single point], CC1(C)C2CCC1(C)C(OC(=O)CC(=O)O)C2 (configuration not stated) 8.91 µM [inhibitor, partial curve, poor fit], CCC(=O)NC(=S)Nc1ccc(N2CCN(C(=O)c3ccc(Cl)cc3)CC2)cc1 10 µM [inhibitor, single point], CCN(CC)CCCNC(=O)c1cc2c(-c3cccc(OC)c3)nn(C)c2s1 10 µM [inhibitor, partial curve, poor fit], COc1cc(Cn2c3ccc(NC(=O)CCc4ccc(O)cc4)cc3c(=O)n2C)ccc1F 1 µM [inhibitor, full curve, poor fit], CC(C)c1cc(-c2nc(-c3cccc(Cl)c3)no2)n[nH]1 22.4 µM [inhibitor, single point], Clc1cccc(-c2csc(Nc3cccnc3)n2)c1 12.6 µM [inhibitor, partial curve, poor fit], O=C(Nc1nc(-c2ccc(S(=O)(=O)N3CCCC3)cc2)cs1)c1cccs1 10 µM [inhibitor, single point], CC(=O)N1N=C2c3ccccc3CCC2C1c1cccs1 (configuration not stated) 7.08 µM [inhibitor, partial curve, poor fit], N#Cc1cc([N+](=O)[O-])ccc1N1CCN(c2ccccc2O)CC1 10 µM [inhibitor, single point], CC(=O)c1sc(NC(=O)CCS(=O)(=O)c2ccccc2)nc1C 28.2 µM [inhibitor, single point], S=C(NCCc1ccccc1)Nc1ccc(Cl)cc1Cl 14.1 µM [inhibitor, single point], COc1ccc(NC(=O)CSc2nnc(COc3ccccc3)n2Cc2ccco2)cc1OC 10 µM [inhibitor, single point], O=C(C1CCC1)N(CCc1ccccc1)Cc1nc2ccccc2c(=O)[nH]1 11.2 µM [inhibitor, partial curve, poor fit], Clc1ccc(SCc2cc(-c3ccc(Cl)cc3)on2)cc1 28.2 µM [inhibitor, single point], CCOc1ccc(N/C=C/C(=O)c2ccccc2)cc1 14.1 µM [inhibitor, single point], CCc1ccc(OCC2NCCc3cc(OC)c(OC)cc32)cc1 (configuration not stated) 28.2 µM [inhibitor, single point]
